Test results reported in PubChem BioAssay AID2676 (National Center for Advancing Translational Sciences (NCATS), 2010).
Among all 370,000 compounds or so, about 1,100 (0.3%) were called active. The inconclusive results got no clear call from the source; some entries with a clear call stand among them for comparison. Calls come from the whole dose curve; as a rule, active = well fitted activation curve with a large enough effect; inconclusive = small, poorly fitted or top-dose-only effect; inactive = flat fitted curve, though single readings scatter. Potencies beside an inconclusive call are fits to weak or partial responses and may not hold up.

Target: Relaxin receptor 1 (Homo sapiens) (UniProt Q9HBX9)
Assay: qHTS Assay for Agonists of the Relaxin Receptor RXFP1; note: nearly all actives have a fitted effect of over 60% in size
Details: HEK293T-RXFP1 cAMP TR-FRET, 30 min; series mostly up to 57.5 µM
Outline: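 cAMP rise read by TR-FRET after 30 min, 37C compound exposure (up to 58 uM) in RXFP1-transfected HEK293 cells with Ro 20174 present. EC50 from Hill-equation fits, with 29 nM porcine relaxin as 100% and buffer as basal.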
Potency is the fitted concentration of half-maximal effect; tags give direction and shape of the fitted curve.

UniProt Q9HBX9, sequence (Q9HBX9 whole entry, looked up): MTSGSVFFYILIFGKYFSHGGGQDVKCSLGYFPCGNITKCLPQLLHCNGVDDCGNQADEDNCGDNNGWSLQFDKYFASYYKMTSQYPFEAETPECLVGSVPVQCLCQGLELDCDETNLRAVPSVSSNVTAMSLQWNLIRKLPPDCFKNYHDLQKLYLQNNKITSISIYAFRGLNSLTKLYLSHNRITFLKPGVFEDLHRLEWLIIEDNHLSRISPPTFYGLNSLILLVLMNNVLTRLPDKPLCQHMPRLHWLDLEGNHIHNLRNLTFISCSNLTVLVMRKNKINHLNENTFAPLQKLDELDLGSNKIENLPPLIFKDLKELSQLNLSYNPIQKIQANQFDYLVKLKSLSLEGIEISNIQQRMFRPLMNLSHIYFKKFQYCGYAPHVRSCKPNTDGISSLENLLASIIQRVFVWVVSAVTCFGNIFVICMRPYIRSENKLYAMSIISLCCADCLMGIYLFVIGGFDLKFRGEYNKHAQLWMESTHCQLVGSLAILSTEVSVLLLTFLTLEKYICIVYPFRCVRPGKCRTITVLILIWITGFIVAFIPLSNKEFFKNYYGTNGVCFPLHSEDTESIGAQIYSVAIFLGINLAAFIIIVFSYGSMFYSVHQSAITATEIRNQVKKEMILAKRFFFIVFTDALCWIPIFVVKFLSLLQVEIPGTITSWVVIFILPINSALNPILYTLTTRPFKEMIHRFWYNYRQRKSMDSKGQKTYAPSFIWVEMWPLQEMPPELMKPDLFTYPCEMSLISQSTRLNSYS

Potency, active:
O=C(O)CSc1ccnc2cc(Cl)ccc12 12.6 µM
Nc1ncnc2c1ncn2[C@@H]1O[C@H](COS(=O)(=O)O)[C@@H](O)[C@H]1O 7.08 µM
CCCNC(=O)C1CCC(Cn2c(=O)c3sccc3n(CC(=O)NCc3cccc(OC)c3OC)c2=O)CC1 (stereo not given) 22.4 µM
O=C(NCc1nnc2c(C(F)(F)F)cc(Cl)cn12)c1cccnc1 15.8 µM
COc1cccc(-c2ccc(C#N)c(SCC(=O)NCc3ccco3)n2)c1 35.5 µM

Potency, inactive:
CCn1c(CC2C(=O)N(C)c3ccccc32)nc2ccccc2c1=O (stereo not given)
Cc1c(C#N)c(O)[nH]c(=O)c1N=Nc1ccc(Br)cc1C(=O)O
O=C(Nc1ccnn1C1CCN(CCCC2CCCC2)CC1)c1ccccc1Cl
COCCCN1CCN(C2Cc3ccccc3Sc3ccc(Cl)cc32)CC1 (stereo not given)
COc1ccccc1CNC(=O)c1cc2ccc3ccc(C)[nH]c3c2n1
Cc1ccccc1CCNC(=O)C1CCN(S(=O)(=O)c2ccc3c(ccn3C)c2)CC1
CC1CCCN(c2nc3c(c(=O)[nH]c(=O)n3C)n2Cc2ccccc2Cl)C1 (stereo not given)
COc1ccc(OC)c(NS(=O)(=O)c2ccc(N3CCCCS3(=O)=O)cc2)c1
Nc1nn(-c2ccccc2)nc1C(=O)OCc1ccccc1
CCCCCc1cc(=O)[nH]c(=S)[nH]1
Cc1ccccc1OCCn1c(CCNC(=O)C2CCCCC2)nc2ccccc21
C(=C\c1ccco1)/c1nc2ccccc2[nH]1

Potency, inconclusive:
CCOc1ccccc1CNC(=O)Cn1nc(C)c2nn(-c3ccc(Cl)cc3)c(C)c2c1=O 39.8 µM [activator, single point]
CCCCOC(=O)CNc1n[nH]c(=S)[nH]c1=O 6.31 µM [activator, partial curve]
CSc1nc(NCCCN(C)C)c2c3c(sc2n1)CN(C)CC3 25.1 µM [activator, partial curve]
COc1cc(NC(=O)CCc2c(C)nc3c4c(C)cc(C)nc4nn3c2C)cc(OC)c1 39.8 µM [activator, single point]
CC1CCc2cc(F)cc3c(O)c(C(=O)NCc4ccco4)c(=O)n1c23 (stereo not given) 39.8 µM [activator, single point]
O=c1c2ccccc2c(=O)n2n1Cc1ccccc1C2 25.1 µM [activator, partial curve]
CC1=C(C(=O)OCC2CCCO2)C(c2coc3ccc(C)cc3c2=O)C2=C(CCCC2=O)N1 (stereo not given) 22.4 µM [activator, partial curve]
O=C(/C=C/c1ccc(Cl)cc1)Nc1nc(-c2cccs2)ns1 39.8 µM [activator, single point]
O=C(O)CCCC(=O)N1CCN(c2nc(-c3ccccc3Cl)c3cc(Br)ccc3n2)CC1 31.6 µM [activator, partial curve]
COc1cc2c(=O)c(S(=O)(=O)c3ccccc3)cn(CC(=O)Nc3ccccc3C)c2cc1OC 31.6 µM [activator, single point]
CCc1nc2sc3c(Cl)ncnc3c2c2c1CCCC2 39.8 µM [activator, single point]
O=C1CCCN1CCCNc1nc2c(S(=O)(=O)c3ccc(Br)cc3)nnn2c2ccccc12 31.6 µM [activator, partial curve]
CC(C)NC[C@@H](O)c1ccc(O)c(O)c1 0.562 µM [activator, full curve]
COc1ccc(Cc2c(C)nn(-c3nc(C)c(C(=O)Nc4ccc(C)cc4C)s3)c2C)cc1 25.1 µM [activator, partial curve]
COc1cccc(-c2ccc3c(N)c(C(=O)Nc4ccccc4C)sc3n2)c1 20 µM [activator, partial curve]
CC(=O)C1=C(O)C(=O)N(c2ccc(Br)cc2)C1c1cccc(F)c1 (stereo not given) 31.6 µM [activator, partial curve]
CC(=O)c1cccc(NC(=O)CCc2nnc3ccc(N4CCN(C)CC4)nn23)c1 31.6 µM [activator, partial curve]
COc1cc(OC)c2c(-c3ccccc3)cc(=O)oc2c1C(CC(=O)N1CCN(c2ccccc2)CC1)c1ccc2c(c1)OCO2 (stereo not given) 39.8 µM [activator, single point]
NC(=S)Nc1cccc(-c2n[nH]c(=S)o2)c1 17.8 µM [activator, partial curve]
Cc1ccccc1CNc1ncnc2cc(Cl)ccc12 35.5 µM [activator, single point]
Cc1ccccc1NC(=O)c1oc2c(c1C)-c1nn(Cc3cccc(Cl)c3)cc1CC2 10 µM [activator, partial curve]
O=C(CN1C(=O)c2ccc(Br)cc2C1=O)NCC1CCCO1 (stereo not given) 14.1 µM [activator, partial curve]
CCOc1ccc(Br)cc1C(=O)Nc1ccc(C(=O)NCC(C)C)cc1 35.5 µM [activator, single point]
COc1ccc2nc(/C(C#N)=C\c3ccc(C(=O)O)cc3)[nH]c2c1 28.2 µM [activator, partial curve]
O=C(CCn1c(=S)[nH]c2cc3c(cc2c1=O)OCO3)NCc1ccccc1Cl 35.5 µM [activator, single point]
O=C(NCCc1ccccc1)c1cc(-c2ccncc2)nc2ccc(S(=O)(=O)N3CCOCC3)cc12 35.5 µM [activator, single point]
CCOC(=O)c1cn2nc(N3CCCC3)ccc2n1 35.5 µM [activator, partial curve]
COc1cccc(C(=O)Nc2nnc(S(=O)(=O)N3CCCC3)s2)c1 22.4 µM [activator, partial curve]
